# In PubChem BioAssay AID1631 (National Center for Advancing Translational Sciences (NCATS), 2009):
# Out of some 260,000 compounds screened, about 890 (0.34%) were called active. The shares of active, inactive and inconclusive entries below differ from those in the screen. The call rests on the fitted dose curve; in most records, active means well fitted activation curve with a large enough effect; inconclusive means small, poorly fitted or top-dose-only effect; inactive means no such curve, though single readings can be large or run the other way. Potencies of inconclusive entries are left out as doubtful fits.
# Target: Pyruvate kinase PKM (Homo sapiens) (UniProt P14618)
# Sequence of UniProt P14618 (P14618 whole entry, looked up, canonical isoform): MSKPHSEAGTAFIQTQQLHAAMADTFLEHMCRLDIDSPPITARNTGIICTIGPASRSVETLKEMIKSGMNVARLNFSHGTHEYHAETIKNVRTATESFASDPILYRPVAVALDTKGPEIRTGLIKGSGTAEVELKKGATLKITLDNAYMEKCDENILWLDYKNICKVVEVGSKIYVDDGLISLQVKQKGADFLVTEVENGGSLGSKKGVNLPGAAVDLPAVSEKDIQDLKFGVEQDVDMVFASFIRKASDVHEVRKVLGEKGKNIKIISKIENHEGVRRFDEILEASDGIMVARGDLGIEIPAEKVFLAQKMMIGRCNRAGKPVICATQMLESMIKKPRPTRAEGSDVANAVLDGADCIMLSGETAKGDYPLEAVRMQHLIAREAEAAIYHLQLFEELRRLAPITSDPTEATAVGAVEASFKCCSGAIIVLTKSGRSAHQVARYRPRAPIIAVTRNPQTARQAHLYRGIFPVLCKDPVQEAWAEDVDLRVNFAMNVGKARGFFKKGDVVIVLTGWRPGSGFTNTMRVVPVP
# Test: qHTS Assay for Activators of Human Muscle isoform 2 Pyruvate Kinase; further: nearly all actives have a fitted effect of over 55% in size
# Conditions: purified PKM2, Kinase-Glo ATP luminescence; Potency: activation; activation: at 57.5 µM (top of the series), 0% is enzyme alone, no compound
# In short: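 Kinase-Glo luminescence reports ATP generated from ADP (0.1 mM) and PEP (0.5 mM) by purified hPK-M2 after 1 h at room temperature, pH 7.2 imidazole buffer; intermediate enzyme activity allows detecting inhibitors and activators.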
# On the % scale 0 is the no-effect control and ±100 the full control effect; potency means the concentration at half of the fitted maximal effect; tags describe the fitted curve by direction and shape.
Compound,Potency,activation
Cc1ccc(CNC(=O)CC2(CC3=NS(=O)(=O)c4ccccc4N3)CCCC2)cc1,"inconclusive [rising, single point]",
O=C(Cc1cscn1)c1ccc(O)cc1O,"inconclusive [rising, single point]",
CCOc1ccccc1Oc1c(C)oc2cc(OC(=O)N3CCOCC3)ccc2c1=O,"inconclusive [rising, single point]",
O=C(CCn1cnc2ccccc21)N=Nc1c(O)[nH]c2ccccc12,"inconclusive [rising, partial curve]",
O=C(O)C1C2C=CC(O2)C1C(=O)Nc1ccc(S(=O)(=O)Nc2ccccc2)cc1 (stereo not drawn),active: 28.2 µM,
Cc1cc2oc(=O)sc2cc1NS(=O)(=O)c1ccccc1,"inconclusive [rising, partial curve]",
O=C(CC(c1ccc(F)cc1)c1ccco1)N1CCOCC1 (stereo not drawn),"inconclusive [rising, single point]",
Cc1cc(C(=O)N2CCN(c3ncccn3)CC2)c(C)o1,"inconclusive [rising, single point]",
O=c1c2c3c(sc2[nH]c(=S)n1Cc1ccco1)CCC3,active: 11.2 µM,
Cc1ccc(-c2nc(CN(Cc3cnn(C)c3)C(C)C)c(C)o2)o1,"inconclusive [rising, partial curve]",
N#Cc1c(N)n(CCNC(=O)c2ccccc2)c2nc3ccccc3nc12,active: 17.8 µM,
O=S(=O)(c1ccccc1)N(Cc1ccc(Cl)cc1)c1ccncc1,"inconclusive [rising, partial curve]",
O=C(N/N=C/c1ccco1)Nc1ccccc1,,inactive: -18.1%
Cc1ccc(CCC(=O)Nc2nccs2)o1,active: 20 µM,
O=C(O)/C=C/C(=O)c1ccc2c(c1)NC(=O)CO2,"inconclusive [rising, single point]",
CCOC(=O)/C(C#N)=C1/C(=O)N(Cc2ccccc2)c2ccccc21,"inconclusive [rising, single point]",
Cc1ccc(NC(=O)CSCC(=O)Nc2ncc3c(n2)CC(c2ccco2)CC3=O)cc1 (stereo not drawn),"inconclusive [rising, single point]",
CCOc1ccc(-n2c(C)c(C(C)=O)c3cc(OC(C)=O)ccc32)cc1,,"inactive: -0.292% [at 11.5 µM, 0% is enzyme alone, no compound]"
CC(=O)Nc1ccc(NC(=O)c2ccc(NS(=O)(=O)c3cc(C(C)(C)C)cc(C)c3C)cc2)cc1,,inactive: -6.7%
COc1ccc(CCNc2cc(C)nc3c(-c4ccc(Cl)cc4)cnn23)cc1OC,,inactive: 9.49%
Cc1cc(N=Cc2c(O)ccc3cc(Br)ccc23)no1,"inconclusive [rising, partial curve]",
COC(=O)CN1C(=S)N(c2ccc(Cl)cc2)C(=O)C1CC(=O)Nc1ccc(Cl)cc1 (stereo not drawn),"inconclusive [rising, single point]",
O=S(=O)(NCc1cccc(C(F)(F)F)c1)NCc1ccccc1F,,inactive: -4.35%
COc1cccc(NC(=O)CN(C)C(C)C(=O)Nc2ccc(S(=O)(=O)N3CCCC3)cc2)c1 (stereo not drawn),"inconclusive [rising, partial curve]",
COc1cc(C(=O)NCc2ccc3[nH]c(C)cc3c2)cc(OC)c1OC,"inconclusive [rising, single point]",

Compound,Potency,activation
COc1ccc2[nH]c3c(C)c4ccncc4c(C)c3c2c1,"inconclusive [rising, single point]",
C/C(=C\c1ccccc1)C(=O)N1CCN(Cc2ccc3c(c2)OCO3)CC1,,inactive: 0%
CCCc1nc2sc3ccccc3c(=O)c2c(=O)n1Cc1ccco1,active: 14.1 µM,
CC(C)CN(C(=O)CSc1nnnn1-c1ccccc1)c1c(N)n(CC(C)C)c(=O)[nH]c1=O,"inconclusive [rising, single point]",
O=C1CCC(=O)N1c1cccc(-c2nc3ccccc3o2)c1,"inconclusive [rising, full curve, poor fit]",
Cc1c(NC(=O)/C(C#N)=C/c2ccc(-c3ccc(Cl)c(Cl)c3)o2)c(=O)n(-c2ccccc2)n1C,,inactive: 1.58%
O=C(NC(NC(=S)Nc1ccccc1)C(Cl)(Cl)Cl)c1cccc(Cl)c1 (stereo not drawn),,inactive: -1.01%
CCOC(=O)c1cc(CC)sc1N1C(=O)CC(Sc2ccccc2C(=O)O)C1=O (stereo not drawn),active: 25.1 µM,
Cn1c(/N=C/c2cccs2)nc2ccccc21,,inactive: -16.5%
CC(C)OC(=O)c1ccc(NC(=O)c2ccccc2)cc1,,inactive: -4.06%
CCOc1ccc(S(=O)(=O)Nc2nccs2)cc1,"inconclusive [rising, single point]",
O=C(COc1ccc(/C=N/NS(=O)(=O)c2ccccc2)cc1)NCc1ccccc1,"inconclusive [rising, single point]",
CCOC(=O)c1c(C)[nH]c(C(=O)CN2C(=O)NC(C)(c3ccc(C)cc3)C2=O)c1C (stereo not drawn),"inconclusive [rising, full curve, poor fit]",
COc1cc(/C=C(\C#N)C(N)=O)ccc1OS(=O)(=O)c1ccc(C)cc1,"inconclusive [rising, single point]",
NC(=O)N/N=C\c1cc(Br)ccc1O,,inactive: -0.306%
Cc1ccc(/C=C/C(=O)N2CCN(S(=O)(=O)/C=C/c3ccccc3)CC2)o1,"inconclusive [rising, full curve, poor fit]",
Cc1[nH]c2ccccc2c1C(=O)/C=C\c1ccccc1Cl,"inconclusive [rising, partial curve]",
O=C(Cc1c[nH]c2ccccc12)Nc1cccc(S(=O)(=O)N2CCCCC2)c1,"inconclusive [rising, single point]",
CCC(CC)c1nnc(NC(=O)c2ccc3ccccc3n2)s1,,inactive: -1.13%
O=C(Nc1ccc(N2CCOCC2)c(Cl)c1)C1CCCCC1,,inactive: 8.12%
CCCCC1=CC2=C(c3ccco3)C(=O)C(C)(OC(=O)c3ccc(OC)cc3)C(=O)C2=CN1Cc1ccccc1 (stereo not drawn),"inconclusive [rising, partial curve]",
CC(/C=N/NC(=O)c1cc(-c2ccncc2)nc2ccccc12)=C\c1ccco1,"inconclusive [rising, partial curve, poor fit]",
CNC(=O)NC(=S)NC(=O)c1ccc(OC)cc1,"inconclusive [rising, single point]",
Cc1ccc(S(=O)(=O)N2CCN(C(=O)CCn3nc(C)c(C)c3C)CC2)cc1,active: 14.1 µM,
CCCc1nc(SCc2cccnc2)c2c(=O)n(C)c(=O)n(C)c2n1,"inconclusive [rising, single point]",

Compound,Potency,activation
CCn1c(SCC(=O)N/N=C/C=C/c2ccccc2[N+](=O)[O-])nnc1-c1ccccc1,"inconclusive [rising, full curve]",
CC(/C=N/NC(=O)CSc1nnc(SCc2ccccc2)s1)=C\c1ccco1,"inconclusive [rising, single point]",
CCC(=O)N1N=C(c2ccc(NS(C)(=O)=O)cc2)CC1c1ccc(C)cc1 (stereo not drawn),"inconclusive [rising, partial curve]",
COc1ccc(-c2cc(OC)c3c(C)oc(C)c3c(=O)c2)cc1OC,"inconclusive [rising, partial curve]",
Cc1cc(C)n(-c2ccc(S(=O)(=O)N3CCCC3)cc2[N+](=O)[O-])n1,,inactive: -0.682%
COc1cccc2sc(NN)nc12,,inactive: -19.7%
O=C(N/N=C/c1ccc(-c2ccc(Cl)c(C(=O)O)c2)o1)c1cc2c(ccc3ccccc32)o1,"inconclusive [rising, partial curve]",
Cc1ccccc1NC(=O)CSC(N)=O,,inactive: -4.39%
O=C(NC(=S)NC1C2CC3CC(C2)CC1C3)c1ccccc1 (stereo not drawn),,inactive: -8.38%
C=CCOC(=O)C1=C(C)N=c2s/c(=C3\C(=O)N(CC(=O)O)c4ccccc43)c(=O)n2C1c1ccc(OC)cc1 (stereo not drawn),"inconclusive [rising, single point]",
Cc1ccc(NC2=C(CC(=O)O)C(c3ccccc3)N(c3ccc(C)cc3)C2=O)cc1 (stereo not drawn),"inconclusive [rising, single point]",
CC(=O)NC1=NN(C(C)=O)C(c2ccccn2)S1 (stereo not drawn),"inconclusive [rising, single point]",
COc1cccc(CCc2nnc(CCC(=O)N3CCN(Cc4ccccn4)CC3)o2)c1,,inactive: 5.09%
NC1=NC2=C(CCCC2)C2(CCCCC2)S1,"inconclusive [rising, single point]",
CCOC(=O)c1ccc(Nc2nnc(C(C)(C)C)c(=O)[nH]2)cc1,"inconclusive [rising, single point]",
CSc1nc2ccc(NS(=O)(=O)c3c(Cl)cccc3Cl)cc2s1,"inconclusive [rising, single point]",
Cc1ccc(-c2nc3ccccn3c2Nc2ccccc2)o1,active: 2.24 µM,
CCOC(=O)C1=C(N)OC2=C(C(=O)CC(C)(C)C2)C1c1cc(CSc2nnnn2C)cs1 (stereo not drawn),,inactive: -1.99%
CCOC(=O)N/N=C(\C)c1ccc(C)c([N+](=O)[O-])c1,"inconclusive [rising, partial curve, poor fit]",
COc1ccc(-c2nc3n(c2C)Cc2ccccc2-3)cc1,,inactive: -2.94%
CCOC(=O)c1cnc2scnn2c1=O,"inconclusive [rising, partial curve]",
COc1ccc(S(=O)(=O)NCc2ccccc2)cc1Br,"inconclusive [rising, single point]",
Cc1ccccc1CSCc1ccc(C(=O)NCCCN2CCOCC2)o1,"inconclusive [rising, partial curve, poor fit]",
